Measured values as given in PubChem BioAssay AID995 (National Center for Advancing Translational Sciences (NCATS), 2007).
Out of some 72,000 compounds screened, about 710 (0.99%) were called active. Inconclusive results, whose numbers are uncertain, are shown with a selection of clear calls. Calls follow the shape of the dose curve; as a rule, active = well fitted inhibition curve with a large enough effect; inconclusive = small, poorly fitted or top-dose-only effect; inactive = no such curve, though single readings can be large or run the other way. Potencies of inconclusive entries are left out as doubtful fits.

Assay: qHTS Assay for Inhibitors of the ERK Signaling Pathway using a Homogeneous Screening Assay; also: nearly all actives have a fitted effect of over 55% in size
Details: HEK293-V1b, vasopressin-stimulated pERK AlphaScreen; activity, negative = inhibition: at 57.5 µM (top of the series) unless noted
In short: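 Phosphorylated ERK1/2 detected via AlphaScreen bead proximity in lysates of V1b-expressing HEK293 cells given 25 nM vasopressin for 5 min after 30 min compound exposure (37 °C). AC50 from Hill equation; basal DMSO 0%, vasopressin 100%.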
% is scaled to controls: 0 for no effect and ±100 for the full control effect; potency is read from the fitted curve at half-maximal effect; tags tell the direction and shape of the fitted curve.

Structure (SMILES)	Potency	activity, negative = inhibition
COc1cc(OC)c(/C=C2/C(=O)Nc3ccccc32)c(OC)c1	inconclusive [inhibitor, partial curve]	
CN(C)c1ccc(N(C)C)cc1		inactive: -16%
O=c1c2ccccc2nc(-c2ccco2)n1-c1ccncc1	inconclusive [inhibitor, single point]	
CNCC[C@H](Oc1ccc(C(F)(F)F)cc1)c1ccccc1	inconclusive [inhibitor, single point]	
CC[C@@H]1CN2CCc3cc(OC)c(OC)cc3[C@@H]2C[C@@H]1C[C@H]1NCCc2cc(OC)c(OC)cc21	inconclusive [inhibitor, partial curve]	
CC(C)=CCCC1(C)C=Cc2c(O)c3c(c(CC=C(C)C)c2O1)OC12C(=CC4CC1C(C)(C)OC2(C/C=C(/C)C(=O)O)C4O)C3=O (centres undefined)	active: 5.01 µM	
COc1cc(CCN)ccc1O	inconclusive [inhibitor, single point]	
O=C(Oc1ccccc1)N1CCC2(CCN(Cc3nccs3)CC2)CC1		inactive: 14.2%
CCCN1CCc2cc(O)cc3c2[C@H]1Cc1ccc(O)c(O)c1-3	inconclusive [inhibitor, full curve]	
Oc1c(Cl)c(Cl)c(Cl)c(Cl)c1Cl		inactive: 28.3%
O=C1c2ccccc2C(=O)c2ccccc21		inactive: -0.32%
O=C(Oc1ccc(S(=O)(=O)F)cc1F)c1ccccc1Cl		inactive: -8.21% [at 11.5 µM]
CCN1C(=O)c2c(C)nc3ccccc3c2C1=O	inconclusive [inhibitor, partial curve]	
N#CC(C(=O)C12CC3CC(CC(C3)C1)C2)c1nc2ccccc2[nH]1 (centres undefined)	inconclusive [inhibitor, partial curve]	
COc1ccc2c(c1)/C(=C/c1cnc[nH]1)C(=O)N2	inconclusive [inhibitor, single point]	
CCC(COC(=O)c1cc(OC)c(OC)c(OC)c1)(c1ccccc1)N(C)C (centres undefined)	active: 31.6 µM	
O=C(C1CCCN(c2nnc(-n3cccc3)s2)C1)N1CCC2(CC1)OCCO2 (centres undefined)	inconclusive [inhibitor, single point]	
CC1=NN(c2ccc(S(=O)(=O)O)cc2C)C(=[OH+])[C@H]1N=Nc1cc(S(=O)(=O)O)ccc1C(=O)O.O.[Cr]		inactive: -4.2% [at 11.5 µM]
CN1CCC(N(C)c2nc(-c3ccccc3)nc3ccccc23)CC1	inconclusive [inhibitor, single point]	
COCCOC(=O)c1c(N)n(Cc2ccc(OC)cc2)c2nc3ccccc3nc12		inactive: -17.9%
[O-]/[N+](=C/c1cccnc1)c1ccc(Br)cc1	inconclusive [inhibitor, partial curve]	
C[C@@]12C=CC(=O)C=C1CC[C@@H]1C2=CC[C@]2(C)[C@@H]1CC[C@H]2C(=O)CN1CCN(c2cc(N3CCCC3)nc(N3CCCC3)n2)CC1	inconclusive [inhibitor, partial curve]	

Structure (SMILES)	Potency	activity, negative = inhibition
Cc1ccccc1CS(=O)(=O)Cc1ccc(C(=O)N2CCC3(CC2)OCCO3)o1	inconclusive [inhibitor, partial curve]	
Clc1ccc(N2C[C@H]3CC[C@@H](C2)N3)nn1		inactive: 8.66%
CCOC(=O)c1c(C)n(Cc2ccco2)c2ccc(O)cc12	inconclusive [inhibitor, partial curve]	
Nc1ccc(-c2ccc(N)c(Cl)c2)cc1Cl	inconclusive [inhibitor, partial curve, poor fit]	
Cc1ccc(C(=O)Nc2nc3ccccc3n2CCN2CCCC2)cc1	inconclusive [inhibitor, single point]	
OCCN1CCN(CCCN2c3ccccc3Sc3ccc(C(F)(F)F)cc32)CC1	inconclusive [inhibitor, single point]	
COc1cccc(-c2cc(C(F)(F)F)n3nc(C(=O)N4CCC5(CC4)OCCO5)cc3n2)c1	inconclusive [inhibitor, full curve, poor fit]	
Nc1ncnc2c1ncn2[C@@H]1O[C@@H](COP(=O)(O)CP(=O)(O)OP(=O)(O)O)[C@H](O)[C@@H]1O		inactive: 6.68%
CC(=O)Oc1c2c(c(CC=C(C)C)c3c1C(=O)C1=CC4CC5C(C)(C)OC(C/C=C(\C)C(=O)O)(C4=O)[C@]15O3)OC(C)(CCC=C(C)C)C=C2 (some centres undefined)	active: 6.31 µM	
c1nnn(C23CC4CC(CC(C4)C2)C3)n1	inconclusive [inhibitor, partial curve]	
CC12CN3CC(C)(CN(C1)P3(=O)Oc1ccccc1)C2=O (centres undefined)	inconclusive [inhibitor, single point]	
Nc1cc(Cl)ccc1O	inconclusive [inhibitor, single point]	
CCCCCCOC(=O)c1ccccc1N		inactive: 3.84%
Cc1ccc(O)cc1		inactive: -22.4%
COc1cc2c3cc1Oc1c(OC)c(OC)cc4c1C(Cc1cccc(c1)Oc1ccc(c(O)c1)CC3N(C)CC2)N(C)CC4 (centres undefined)		inactive: 11.5%
Cn1c(O)c(C=NCc2ccco2)c(=O)n(C)c1=O	inconclusive [inhibitor, single point]	
CCOC(=O)c1ncn2c1[C@H]1CCCN1C(=O)c1cc(OC)ccc1-2	inconclusive [inhibitor, partial curve]	
CC(=O)C1CCC2C3CCC4=CC(=O)CC[C@@]4(C)C3CC[C@]12C (some centres undefined)	inconclusive [inhibitor, single point]	
COc1ccc2c(c[n+](C)c3c4cc5c(cc4ccc23)OCO5)c1OC	inconclusive [inhibitor, single point]	
c1ccc2c(c1)[I+]c1ccccc1-2	inconclusive [inhibitor, partial curve, poor fit]	
CN(C)c1ccc(CN2CC=C(c3ccc(F)cc3)CC2)cc1	inconclusive [inhibitor, single point]	
COc1ccccc1N1CCN(Cc2ccc(Br)s2)CC1	inconclusive [inhibitor, partial curve]	
